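96-well plates; 48 h exposure; 5 concentrations. Endpoints by linear interpolation between flanking doses. Not reached: highest tested concentration assigned. Abbreviation: GI50, concentration required for 50% inhibition of growth. TGI marks complete inhibition of growth.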
Test system: NCI-H322M lung
Test: DTP human tumour cell line panel, 48 h

Structure (SMILES) | GI50 | TGI
CN(C)CCn1c2ccccc2c2nc3cc4ccccc4cc3nc21 | 2.74 µM | 15.1 µM
COc1cc(/C=C/C(=O)c2ccc(S(=O)(=O)NCCNc3nc(N(C)C)nc(N4CCOCC4)n3)cc2)cc(OC)c1OC | 7.82 µM | 21.1 µM
